Measured values reported in PubChem BioAssay AID686992 (Broad Institute, 2013).
Screen size: about 260,000 compounds; about 960 (0.37%) were called active. The inconclusive results got no clear call from the source; some entries with a clear call stand among them for comparison.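 How the source made its calls: active means mean E-selectin-positive cell signal at least 10% of the positive control, reached in at least 60% of replicates, without over 20% cell loss; inconclusive means no rule given, readout overlaps actives, possibly toxicity-flagged; inactive means the rest, including those meeting only one limit.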

Each compound was assayed against E-selectin (Homo sapiens) (UniProt P16581) (assay: inducers of endothelial E-selectin expression – imaging, HUVEC, immunofluorescence imaging, single point, primary screen (AID 686992;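 further: signal is the percent of cells scored E-selectin positive by PE staining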)). Conditions: at 7.58 µM, stronger effect = higher value, normalized: neutral wells 0, TNF-alpha wells 100.
Sequence of UniProt P16581 (P16581 whole entry, looked up): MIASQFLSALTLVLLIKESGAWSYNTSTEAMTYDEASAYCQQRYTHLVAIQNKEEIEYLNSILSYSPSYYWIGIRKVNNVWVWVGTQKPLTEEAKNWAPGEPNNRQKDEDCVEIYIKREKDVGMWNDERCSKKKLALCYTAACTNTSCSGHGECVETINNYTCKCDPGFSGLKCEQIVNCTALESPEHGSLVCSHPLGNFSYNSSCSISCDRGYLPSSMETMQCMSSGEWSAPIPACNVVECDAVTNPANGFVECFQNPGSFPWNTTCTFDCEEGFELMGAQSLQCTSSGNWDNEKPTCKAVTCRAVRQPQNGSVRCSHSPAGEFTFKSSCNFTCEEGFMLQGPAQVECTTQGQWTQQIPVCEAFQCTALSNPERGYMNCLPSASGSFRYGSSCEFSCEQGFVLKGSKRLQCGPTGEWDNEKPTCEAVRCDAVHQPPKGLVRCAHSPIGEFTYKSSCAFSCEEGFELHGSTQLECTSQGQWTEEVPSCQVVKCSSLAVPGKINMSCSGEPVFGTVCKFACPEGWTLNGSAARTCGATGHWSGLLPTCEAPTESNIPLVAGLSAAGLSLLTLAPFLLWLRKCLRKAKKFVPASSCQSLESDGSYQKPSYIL
Outline: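 Test system: HUVEC; input: 3,000 HUVEC/well; measured by: immunofluorescence imaging; read-out: % PE-positive cells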
With `Cc1cc(C)c(C)c(S(=O)(=O)N2CCN(C(=O)CCC(=O)N3CCOCC3)CC2)c1C` the activation was inconclusive: 37.1%.
In the case of `CCn1c(SCC(=O)NC2CCS(=O)(=O)C2)nnc1-c1ccccc1` (stereo not given), the activation is reported as inconclusive: 51.7%.
For `C[C@H](CO)N1C[C@H](C)[C@H](CN(C)Cc2ccc(C(F)(F)F)cc2)Oc2ccc(NS(=O)(=O)c3cn(C)cn3)cc2CC1=O`, the activation was inconclusive: 108%.
With `COCCCn1cc(CN2CC(N3CCN(CCN(C)C)CC3)CS2(=O)=O)nn1` (stereo not given) the activation was inconclusive: 60.8%.
`CCCCc1cn([C@@H](CCCCNC(=O)OC(C)(C)C)C(=O)N2CCN(C(=O)OC(C)(C)C)CC2)nn1` was tested, and the activation was inconclusive: 49%.
`COc1ccc(N2C(=O)C(CC(=O)O)S/C2=N\N=C\c2cccs2)cc1` (stereo not given) was tested, and the activation was inconclusive: 27%.
For `Cc1ccc(CNC(=O)[C@H](Cc2ccccc2)NC(=O)c2ccco2)cc1`, the activation was inconclusive: 31%.
`C[C@H]1CN([C@@H](C)CO)C(=O)c2cc(C3=CCCCC3)cnc2O[C@H]1CN(C)Cc1ccncc1` was tested, and the activation was inconclusive: 46.7%.
With `CC1CCc2nc(NC(=O)c3ccc(N4C(=O)CCC4=O)cc3)sc2C1` (stereo not given) the activation was inactive: 0.0305%.
In the case of `CCN(CC)P(=O)(Nc1ccc(Br)cc1)c1c(C)nn(CCC#N)c1NC(=O)c1ccc(Cl)cc1` (stereo not given), the activation is reported as active: 50.4%.
For `C[C@H]1CN([C@@H](C)CO)C(=O)c2cc(NC(=O)Nc3ccccc3)ccc2O[C@@H]1CN(C)C(=O)Nc1ccc(C(F)(F)F)cc1`, the activation was active: 40.4%.
`C[n+]1c(-c2ccccc2)cc2c(=Cc3ccccc3)c3ccccc3n21` was tested, and the activation was active: 220%.
`Cc1cc(NS(=O)(=O)c2ccc(NC(=O)c3cccnc3)cc2)nc(C)n1` was tested, and the activation was inconclusive: 29.9%.
`C[C@H](CO)N1C[C@H](C)[C@@H](CN(C)S(=O)(=O)c2cn(C)cn2)Oc2ccc(NC(=O)CCCCCC(=O)Nc3ccccc3N)cc2C1=O` was tested, and the activation was inconclusive: 159%.
In the case of `O=C(NCCc1ccccc1)C1C(=O)Nc2ccccc2C(=O)N1C1CCCCC1` (stereo not given), the activation is reported as active: 207%.
In the case of `C[C@@H]1CN([C@@H](C)CO)C(=O)c2cc(NC(=O)Nc3ccc4c(c3)OCO4)ccc2O[C@H]1CN(C)Cc1ccc(-c2ccccc2)cc1`, the activation is reported as active: 59.7%.
In the case of `CC(=O)NC[C@H]1[C@H](c2ccc(-c3ccccc3F)cc2)[C@@H](CO)N1C(=O)C1CC1`, the activation is reported as inactive: 0.0895%.
With `C[C@@H]1CN([C@@H](C)CO)C(=O)c2cccc(NC(=O)C3CC3)c2O[C@H]1CN(C)Cc1ccccc1` the activation was active: 51.8%.
For `CC(O)(c1ccccc1)c1nc(-c2ccc(Cl)cc2)cs1` (stereo not given), the activation was inconclusive: 57.1%.
In the case of `COc1ccc(S(=O)(=O)N(C)C[C@H]2Oc3ccc(NC(=O)CCCN(C)C)cc3C(=O)N([C@@H](C)CO)C[C@H]2C)cc1`, the activation is reported as active: 97%.
In the case of `CCOC(=O)[C@@H]1[C@H]2COc3ccccc3[C@H]2N2C(=O)N(c3cccc(C)c3)C(=O)[C@]12C`, the activation is reported as inconclusive: 30.2%.
For `COc1ccc2c3c([nH]c2c1)[C@@H](CO)N(C(=O)C1CCCC1)CC31CCN(C(=O)c2ccncc2)CC1`, the activation was inactive: -0.147%.
With `CN(c1ccc(C(=O)Nc2ccc3c(c2)n(C)c(=O)n3C)cc1)S(C)(=O)=O` the activation was inconclusive: 57%.
For `Cc1cccc(C)c1NC(=O)C(c1ccccc1)N(C)CCc1ccccc1` (stereo not given), the activation was inconclusive: 66.7%.
With `C[C@@H]1CN([C@@H](C)CO)C(=O)c2cc(NC(=O)CCCN(C)C)ccc2O[C@@H]1CN(C)S(=O)(=O)c1ccc(F)cc1` the activation was inconclusive: 71%.
`O=C(c1ccncc1)N1C[C@@H]2[C@H](c3ccccc31)[C@H](CO)N2C(=O)Nc1cccc(F)c1` was tested, and the activation was inactive: 0.448%.
`Cc1cc(Br)cn2c(Cc3ccccc3C(F)(F)F)c(-c3cccc(Cl)c3)nc12` was tested, and the activation was inactive: 0.152%.
`O=C(CC1(O)C(=O)Nc2ccccc21)c1ccccc1` (stereo not given) was tested, and the activation was inconclusive: 87.5%.
In the case of `CNC(=O)C[C@H]1CC[C@@H]2[C@@H](COc3ccc(NC(=O)c4ccc(F)cc4)cc3C(=O)N2C)O1`, the activation is reported as inactive: -0.0845%.
For `COc1ccccc1C1NC(=O)NC(C)=C1C(=O)OCc1ccccc1` (stereo not given), the activation was inactive: 0.837%.
With `N=c1n(CCO)c2ccccc2n1CCOc1ccc(Cl)cc1Cl` the activation was inactive: 0.479%.
With `C=CCN(c1cccc(C(F)(F)F)c1)S(=O)(=O)c1cccc(C(=O)OCC(=O)NCCC)c1` the activation was inconclusive: 57.3%.
In the case of `Cc1c(C(=O)N2CCN(S(=O)(=O)c3cc(F)ccc3F)CC2)oc2ccccc12`, the activation is reported as active: 343%.
In the case of `C[C@H](CO)N1C[C@H](C)[C@H](CN(C)S(=O)(=O)c2ccc(Cl)cc2)Oc2ccc(NS(=O)(=O)c3ccc(F)cc3)cc2CC1=O`, the activation is reported as active: 92.2%.
For `COc1cccc(CNC(=O)CN2C(=O)COc3ccc(S(=O)(=O)N4CCCCCC4)cc32)c1`, the activation was active: 42.8%.
In the case of `Cc1ccc(CNc2ccc3nnc(-c4ccccc4)n3n2)cc1`, the activation is reported as inconclusive: 71.9%.
With `O=C(C1CCCN(c2nnc(-n3cccc3)s2)C1)N1CCN(c2ccccc2)CC1` (stereo not given) the activation was inconclusive: 101%.
`CC(=O)N(C[C@@H]1N[C@@H](CO)[C@H]1c1ccc(-c2ccc(F)cc2)cc1)C(C)C` was tested, and the activation was inactive: -0.0465%.
For `C/C(=N\NC(=O)c1nn(C)c(C)c1Br)c1cccc(NC(=O)c2ccoc2C)c1`, the activation was inconclusive: 93.3%.
In the case of `Cc1ccc(S(=O)(=O)N(C)C[C@@H]2OCCCC[C@H](C)Oc3ccc(NS(C)(=O)=O)cc3C(=O)N([C@@H](C)CO)C[C@@H]2C)cc1`, the activation is reported as inactive: -0.003%.
For `C[C@H]1CN([C@@H](C)CO)C(=O)c2cccc(NC(=O)c3ccc(-c4nccs4)cc3)c2O[C@H]1CN(C)Cc1ccncc1`, the activation was inconclusive: 29.1%.
`C[C@H](CO)N1C[C@H](C)[C@@H](CN(C)C(=O)c2ccccc2)Oc2cc(/C=C/c3ccccc3)ccc2S1(=O)=O` was tested, and the activation was inconclusive: 30.4%.
For `CC1Sc2ccc(S(=O)(=O)CCC(=O)N3CCN(c4ccccc4F)CC3)cc2NC1=O` (stereo not given), the activation was inconclusive: 31.1%.
For `Cc1ccc(S(=O)(=O)c2cc3ccc(O)cc3oc2=O)cc1C`, the activation was inconclusive: 39%.
In the case of `OC(COC(c1ccccc1)c1ccccc1)CN1CCOCC1` (stereo not given), the activation is reported as active: 71.6%.
